Results: PMC12040169 (PLOS Biology, 2025)
This is one part of the list.

Each compound was assayed on T1, C. trachomatis L2/434/Bu expressing GFP (CTL2-GFP). Conditions: total inclusion area; 28.5 h, 10 µM; inhibitor.
T1 construct: L2/434/Bu GFP intracellular growth in HeLa cells
Parameters: species or system HeLa; C. trachomatis total inclusion area by high-content imaging, normalised to DMSO
Summary of the method: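 After bulk GFP and resorufin fluorescence reads, cells were fixed, stained with Hoechst and imaged by high-content microscopy. Inclusion area and number (GFP) stood in for chlamydial growth, nuclei count (Hoechst) for host cell viability. MICs were derived as for the bulk readout.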

SMILES	% of control remaining
O=C(NCC1CCCO1)c1ccc(CNS(=O)(=O)c2cccc(Cl)c2)cc1 (stereo not shown) [CBK267219]	98.9851
CCn1cc(Cl)c(C(=O)Nc2ccsc2C(=O)OC)n1 [CBK058439]	90.9421
O=C(CN1C(=O)C2C3C=CC(C3)C2C1=O)OCC(=O)c1ccccc1 (stereo not shown) [CBK265112]	97.1966
COCC(=O)N1CCC(c2cc(-c3ccc(F)cc3)n[nH]2)C1 (stereo not shown) [CBK284600]	90.1391
CCN1CCCC1CNc1c(Cl)c(Cl)nc2c1c(=O)n(C)c(=O)n2C (stereo not shown) [CBK007287]	95.1751
CCN(CC)C(=O)C1CCCN(C(=O)NCC2COc3ccccc3O2)C1 (stereo not shown) [CBK156116]	93.5987
O=C(C1CCC1)N1CCC(c2nc(C3CCCC3)no2)C1 (stereo not shown) [CBK285434]	77.2899
COc1ccc(Sc2nc3cc(Cl)c(Cl)cc3nc2NC(C)C)cc1OC [CBK093792]	97.9998
O=C(NC(=S)Nc1cc(-c2nc3ccccc3[nH]2)ccc1Cl)c1ccccc1[N+](=O)[O-] [CBK268649]	98.5205
COc1cc(CNC2CCCCC2)cc(I)c1OCC(N)=O [CBK269158C]	113.359
COc1ccc(S(=O)(=O)N2CCN(C(=O)COc3ccc(C)cc3)CC2)cc1 [CBK263354]	105.545
O=C(Cc1cccs1)Nc1cccc(C(=O)Nc2cccc(C(=O)O)c2)c1 [CBK268509]	115.749
CCCCc1nccn1CCn1ccnc1CCCC [CBK020437]	86.4663
COc1cc(C(=O)N2CCN(c3cc(C(C)C)ccc(CO)c3=O)CC2)cc(OC)c1OC [CBK007673]	110.807
COc1ccc(S(=O)(=O)Nc2c(C(=O)N3CCOCC3)sc3ncccc23)cc1OC [CBK050005]	65.509
COc1ccc(/C=C/C(=O)O)cc1S(=O)(=O)Nc1ccc(C(=O)O)cc1 [CBK261246]	110.473
Cc1ccc(N(CC(=O)Nc2ccccc2C(N)=O)S(=O)(=O)c2ccccc2)cc1C [CBK265246]	96.988
COc1ccc2nc(Nc3nc(=O)cc(CSc4nc5ccccc5s4)[nH]3)nc(C)c2c1 [CBK264854]	96.6889
COc1ccc(CCN2C(=O)CC(N3CCN(Cc4ccc5c(c4)OCO5)CC3)C2=O)cc1OC (stereo not shown) [CBK074555]	92.9076
O=C(O)c1ccccc1NC1CC(=O)N(C2CCCCC2)C1 (stereo not shown) [CBK286556]	104.199
Cc1ccc(-c2nn(CCC#N)cc2C(=O)N2CCCC2)cc1C [CBK305974]	43.7468
O=C(NC1CN2CCC1CC2)c1ncoc1-c1ccccc1 (stereo not shown) [CBK283888]	69.2914
O=c1c(Cl)nc(Cl)c(C2CCCCC2)n1Cc1ccccc1 [CBK012671]	9.79
O=C(C1CC1)N1CCCC1c1nc(-c2ccc(F)cc2)n[nH]1 (stereo not shown) [CBK283934]	72.4477
CCOc1ccc(C(=O)NCCC(=O)O)cc1 [CBK261725D]	102.426
O=[N+]([O-])c1ccc2c(/C=N/c3ccc(-c4nc5ccccc5s4)cc3)c(O)ccc2c1 [CBK261483]	114.423

SMILES	% of control remaining
Cc1ccc(S(N)(=O)=O)cc1NC(=O)c1ccc(Br)o1 [CBK003693]	117.072
Cc1cc(C)c2c3c(sc2n1)C(=O)N(C)CC(=O)N3 [CBK287959]	93.7135
CC(c1ccc2c(c1)OCO2)c1cc2c(cc1OCCO)OCO2 (stereo not shown) [CBK200110]	70.1483
Cc1cc(-c2cc(=O)n(Cc3ccccc3)nc2C2CC2)on1 [CBK284365]	69.779
CN1CCC(COC(=O)Nc2ccc3cc[nH]c3c2)CC1 [CBK200130]	110.872
Nc1nnc(SCC(=O)N(Cc2ccccc2F)C2CC2)s1 [CBK295179]	125.068
N#CCCCN1CCN(c2nccnc2OCCN2C(=O)CCC2=O)CC1 [CBK084299]	98.4747
Cc1c(C(=O)O)sc2ncn(CCOc3ccc(Cl)cc3)c(=O)c12 [CBK286808]	68.2624
COc1cc(Cl)cc(/C=N\NC(=O)C2C(=O)NCC2c2ccccc2)c1O (stereo not shown) [CBK262825]	115.205
Cc1ccc(-c2nccnc2OCCOc2ccccc2)cc1C [CBK106865]	88.8536
Cc1cc2cc(C(=O)NCC3CCCN(C(C)C)C3)ccc2o1 (stereo not shown) [CBK282625]	88.3012
COc1cc(OC)cc(C(=O)N[C@@H]2CC[C@@]3(c4ccc(OC)c(OC)c4)CCN(C)[C@H]3C2)c1 [CBK074242T]	92.9781
c1ccc(-c2nnc(Cn3cncn3)o2)cc1 [CBK011113]	51.4008
O=C(O)CCC(=O)Nc1ccc(Br)c2cccnc12 [CBK265186]	110.863
CN(C)S(=O)(=O)c1cc(C(=O)NCCc2c[nH]c3ccccc23)c(Cl)cc1Cl [CBK265883]	109.328
CCCCNC(=O)c1ccc2c(c1)NC(=O)C(N1CCCC1)S2 (stereo not shown) [CBK071762]	92.2527
COc1cccc(NC(=O)C(=O)NCCCO)c1 [CBK262095]	94.7971
CC(C)(c1ccc(OC(=O)c2ccc(N)cc2)cc1)c1ccc(OC(=O)c2ccc(N)cc2)cc1 [CBK260962]	105.059
COc1cc(CN2CCN(S(=O)(=O)c3ccc(Cl)cc3)CC2)cc(OC)c1OC [CBK074499]	88.8184
Oc1ccc(-n2ncc(-c3ccc(F)cc3)n2)cc1 [CBK112904]	88.7005
Nc1nonc1C(=O)NCc1cccnc1 [CBK025695]	43.0815
O=C(Nc1nnc(C(F)(F)F)s1)c1ccc(F)c(Cl)c1 [CBK076831]	77.8556
CCN1C(=O)/C(=C/c2cc3c(cc2Cl)OCO3)NC1=S [CBK265117]	68.4494
N#Cc1ccc(NCc2ccccc2CN2CCCC2CO)nc1 (stereo not shown) [CBK304055]	66.0397
O=C(c1ccccc1)C1(CO)COCc2nccn21 (stereo not shown) [CBK009980]	86.3517
COCOc1ccc(-c2nc(-c3cccs3)cnc2N)cc1 [CBK063977]	107.468
